Where a name gives a salt, the structure may show the parent alone.
Columns and labels:
[1] = system: B16F10 mouse melanoma cells; experiment: Subcutaneous B16F10 tumor growth in C57BL/6 mice; format: in vivo; conditions: for melanoma primary tumor growth in vivo: orally in chow after tumors reached 5-10 mm3
[2] = system: subcutaneous MeWo melanoma tumors; experiment: Tumor histochemistry (MECA-32, Ki-67, cleaved caspase-3); format: in vivo, human; conditions: diet 20 mg/kg for 35 days
[3] = system: human melanoma cells and endothelial cells; experiment: In vitro cell proliferation, viability and serum starvation survival; format: cell-based; conditions: MeWo, HT-144, SK-Mel-334.2 cells, 1 μM, 5 days
Method: To determine the effects of miR-199a or miR-1908 over-expression and combinatorial LNA-induced miRNA inhibition on cell proliferation, 2.5×10^4 cells were seeded in triplicate in 6-well plates, and viable cells were counted after 5 days. […] Viable cells were counted after 8, 24, 48, 72, and 120 hours.
The number of viable cells was counter after 8, 16, and 24 hours.
To determine the effects of GW3965, T0901317, and Bexarotene on in vitro cell growth, 2.5×10^4 melanoma cells were seeded in triplicate in 6-well plates and cultured in the presence of DMSO, GW3965, T0901317, or Bexarotene at 1 μM each. After 5 days, the number of viable and dead cells was counted using the trypan blue dye (72-57-1, Sigma-Aldrich), which selectively labels dead cells.

[4] = system: HUVEC recruited by human melanoma cells; experiment: Trans-well endothelial recruitment assay; format: cell-based; conditions: MeWo, HT-144, SK-Mel-2, SK-Mel-334.2, 1 μM for 72 hours
Method: 5×10^4 cancer cells were seeded into 24-well plates approximately 24 hours prior to the start of the assay. HUVEC's were grown to 80% confluency and serum starved in EGM-2 media supplemented with 0.2% FBS for 16 hours. HUVEC's were then pulsed with Cell Tracker Red CMTPX dye (C34552, Invitrogen) for 45 minutes. Meanwhile, cancer cells were washed with PBS, 0.5 mL of 0.2% FBS EGM-2 media was added to each well, and a 3.0 μm HTS Fluoroblock insert (351151, BD Falcon, San Jose, Calif.) was placed into each well. 1×10^5 HUVEC's, resuspended in 0.5 mL of starvation media, were seeded into each trans-well insert, and the recruitment assay was allowed to proceed for 16-18 hours at 37° C. […] Upon completion of the assay, the inserts were processed and analyzed as described for the matrigel invasion assay above (See Matrigel Invasion Assay). […]
Subsequently, 5×10^4 cancer cells were seeded into 24-well plates in the presence of each drug or DMSO and allowed to attach for 16 hours prior to starting the assay. […] The basal side of each insert was imaged using an inverted fluorescence microscope (Zeiss Axiovert 40 CFL) at 5× magnification, and the number of DAPI-positive cells was quantified using ImageJ.

SMILES: O=C(O)Cc1cccc(OCCCN(Cc2cccc(C(F)(F)F)c2Cl)CC(c2ccccc2)c2ccccc2)c1 [GW3965 2, 3-[3-[N-(2-Chloro-3-trifluoromethylbenzyl)-(2,2-diphenylethyl)amino]propyloxy]phenylacetic acid hydrochloride]
- suppression of melanoma tumor growth in LXRβ genetically null mice ([1]; diet 20 mg/kg for 7 days): blocked
- suppression of tumor growth in mice genetically inactivated for ApoE ([1]; diet 20 mg/kg for 7 days): completely ineffective
- tumor growth inhibition in LXRα genetically null mice ([1]; diet 20 mg/kg for 7 days): had no effect
- overall survival time, B16F10 ([1]; immunocompetent mice, chow 100 mg/kg after tumor establishment): substantially prolonged
- melanoma primary tumor growth in vivo [1]: inhibit
- decrease in the number of actively proliferating tumor cells in vivo ([2]; Ki-67): 23%
- reduction in the endothelial cell content of tumors ([2]; MECA-32): roughly 2 fold
- number of apoptotic cells ([2]; cleaved caspase-3): without a change

SMILES: C=C(c1ccc(C(=O)O)cc1)c1cc2c(cc1C)C(C)(C)CCC2(C)C [bexarotene]
- cell proliferation or cell viability rates [3]: did not affect
- ability of melanoma cells to recruit endothelial cells [4]: did not significantly affect

SMILES: CC(CCOc1cccc(CC(=O)O)c1)N(Cc1cccc(C(F)(F)F)c1Cl)CC(c1ccccc1)c1ccccc1 (stereo not drawn) [SB742881 25]
- melanoma primary tumor growth in vivo [1]: significantly inhibited

SMILES: O=S(=O)(c1ccccc1)N(CC(F)(F)F)c1ccc(C(O)(C(F)(F)F)C(F)(F)F)cc1 [T0901317 1]
- melanoma primary tumor growth in vivo [1]: inhibit

From patent US9399028B2, “Treatment of drug resistant cancer” (ROCKEFELLER UNIVERSITY (THE), priority 2012, dated 2016)
